In PubChem BioAssay AID488969 (Vanderbilt High Throughput Screening Facility, 2010):
In all, about 110,000 compounds were measured (“z-score”: median about -0.1, highest 2% from about 2 on). This is one part of the list.

Biological target: Metabotropic glutamate receptor 8 (Rattus norvegicus) (UniProt P70579)
Experiment: mGluR8 Gi/Go-coupled signaling modulation – cell-based, rat, thallium flux, HTS, primary screen (AID 488969)
Conditions: HEK293 rat mGluR8, GIRK (G protein-gated inwardly rectifying potassium channel) thallium flux, FluoZin2; at 10 µM; stronger effect = higher value; submaximal glutamate (EC20) added with thallium

Chain of UniProt P70579 (P70579 whole entry, looked up): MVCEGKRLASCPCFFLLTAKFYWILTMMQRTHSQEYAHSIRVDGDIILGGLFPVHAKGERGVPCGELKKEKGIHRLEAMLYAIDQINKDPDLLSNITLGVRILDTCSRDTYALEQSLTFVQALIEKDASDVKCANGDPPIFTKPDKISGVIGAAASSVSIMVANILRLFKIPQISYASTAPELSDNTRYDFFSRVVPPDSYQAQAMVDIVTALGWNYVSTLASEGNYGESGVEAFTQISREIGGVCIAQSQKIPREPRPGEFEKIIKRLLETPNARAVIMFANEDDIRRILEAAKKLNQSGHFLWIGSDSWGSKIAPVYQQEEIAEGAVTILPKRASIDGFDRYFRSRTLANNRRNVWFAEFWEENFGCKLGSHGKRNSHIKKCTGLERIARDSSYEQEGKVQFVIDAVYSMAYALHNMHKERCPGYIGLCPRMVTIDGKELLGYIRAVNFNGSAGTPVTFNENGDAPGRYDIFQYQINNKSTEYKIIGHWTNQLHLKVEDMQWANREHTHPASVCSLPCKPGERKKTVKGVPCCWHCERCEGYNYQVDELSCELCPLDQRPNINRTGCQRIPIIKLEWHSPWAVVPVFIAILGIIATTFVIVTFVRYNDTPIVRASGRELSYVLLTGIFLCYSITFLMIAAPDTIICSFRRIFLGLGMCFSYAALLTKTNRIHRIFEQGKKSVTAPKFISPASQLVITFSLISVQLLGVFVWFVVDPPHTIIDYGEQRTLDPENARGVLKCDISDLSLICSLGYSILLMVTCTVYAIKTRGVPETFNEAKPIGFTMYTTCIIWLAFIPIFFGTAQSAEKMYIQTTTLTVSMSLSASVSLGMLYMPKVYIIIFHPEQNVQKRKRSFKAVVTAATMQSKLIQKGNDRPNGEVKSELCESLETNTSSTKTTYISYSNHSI

Going from `O=S(=O)(/N=C(\Sc1ccccc1)c1ccccc1)c1ccc(Cl)cc1` to `COc1ccccc1N1CCN(C(=O)c2ccc(CSc3ccccc3)cc2)CC1`, the z-score rises from -0.0735 to 0.0362.

Going from `CCn1nnc(NC(=O)c2sc3ccccc3c2Cl)n1` to `Cc1nc2c(C(=O)NCc3ccc(F)cc3)c[nH]n2c(=O)c1Cl`, the z-score falls from 0.967 to -0.807.

First: COc1ccc(CCNC(=O)COc2ccc(S(=O)(=O)NCC(C)C)cc2Cl)cc1OC
Second: CC(=O)Nc1ccc(S(=O)(=O)NNC(=O)COc2ccc(C(C)(C)C)cc2)cc1
The z-score of the first is lower: -0.464 for the first, -0.0776 for the second.

Going from `O=C(c1cccc(Br)c1)N1CCCC1` to `O=C(Nc1cc(C(F)(F)F)ccc1F)C1CCCC1`, the z-score rises from -0.319 to -0.142.

Going from `Cc1ccc(C(C(=O)NC2CCCC2)N(Cc2cccnc2)C(=O)c2snc(C(N)=O)c2N)o1` (configuration not stated) to `CN(Cc1ccccc1)C(=O)C1CCCN(Cc2ccc(Cl)cc2)C1` (configuration not stated), the z-score falls from -0.175 to -0.229.

First: CC1CC(=O)N(C)c2ccc([N+](=O)[O-])cc2N1 (configuration not stated)
Second: Cn1c(NC(=O)C2CC2)cc(=O)n(C)c1=O
The z-score of the first is higher: -0.291 for the first, -0.336 for the second.

Compared with `Cc1nn(C/C(C#N)=N\O)c(C)[n+]1N`, `CCOC(=O)C1=C(C)NC(SCC(N)=O)=C(C#N)C1c1cccs1` (configuration not stated) is lower in z-score: -0.018 for the first, -0.537 for the second.

Going from `O=C(COc1ccc2ccccc2c1)Nc1cccc(C(=O)Nc2ccccc2C(=O)O)c1` to `CCc1cccc2c(/C=N/NC(=O)c3cccc(S(=O)(=O)Nc4ccccc4Cl)c3)c[nH]c12`, the z-score rises from -0.933 to -0.57.

First: O=C1NC(=Nc2ccccc2)S/C1=C\c1cccn1-c1ccccc1
Second: O=S(=O)(c1ccccc1)c1cnn2c(C(F)(F)F)cc(-c3ccccc3)nc12
The z-score of the first is lower: -0.24 for the first, -0.0328 for the second.

First: CCCCNC(=O)CS(=O)Cc1nc(-c2cccc(Cl)c2)oc1C (configuration not stated)
Second: Cc1cc(C)n(C(=O)COc2c(C)cccc2C)n1
The z-score of the first is lower: -0.421 for the first, 0.876 for the second.

Compared with `C=CCn1cnc2scc(-c3ccccc3)c2c1=O`, `Cc1nn(-c2ccccc2)c2ncc(C(=O)c3cc(Cl)ccc3O)cc12` is lower in z-score: 0.17 for the first, -1.54 for the second.

Compared with `CC(NC(=O)c1ccccc1F)C(=O)O` (configuration not stated), `Nc1cc2c(cc1C(=O)c1ccccc1)OCCO2` is lower in z-score: 0.352 for the first, 0.199 for the second.

Compared with `CCOc1ccc(NC(=O)Nc2nnc(CC)s2)cc1`, `Cc1cccc(OCCOC(=O)Nc2ccccc2)c1` is higher in z-score: -0.713 for the first, -0.107 for the second.

Compared with `CCC(C)NC(=O)C1CCN(c2nc(OC)nc(OC)n2)CC1` (configuration not stated), `CCOC(=O)c1sc(NC(=O)CSc2nc3c(cc2C#N)CCCCC3)c(C#N)c1C` is lower in z-score: 0.12 for the first, -0.113 for the second.

First: NNc1nc2c(Cl)cccc2s1
Second: CCOC(=O)Cc1csc(NS(=O)(=O)c2ccc(F)cc2)n1
The z-score of the first is lower: -0.321 for the first, 0.0276 for the second.

Compared with `CCN(CC)c1ccc(/C=N/Nc2nc(C)cc(=O)[nH]2)cc1`, `CCN(CC)S(=O)(=O)c1ccc(-c2nnc(SCC(=O)N3c4ccccc4CC3C)n2CC)cc1` (configuration not stated) is lower in z-score: -0.103 for the first, -0.133 for the second.
